Measurements taken from PubChem BioAssay AID248 (DTP/NCI, 2004).
Inconclusive results and toxic doses are left out. Some entries of the source have several records that differ or are many. The list is limited to them. The source may hold further records. The values listed for one entry are repeated measurements (runs, samples, wells, individuals or studies).

System: L1210 leukemia ip in BDF1 mice, survival T/C
Test: NCI In Vivo Anticancer Drug Screen. Data for tumor model L1210 Leukemia (intraperitoneal) in B6D2F1 (BDF1) mice
Conditions: higher = longer survival
[1] = endpoint: mean survival time, dose: 100.0 mg/kg/injection, schedule: Q04DX003 (ip), vehicle: saline
[2] = endpoint: mean survival time, dose: 400.0 mg/kg/injection, schedule: Q04DX002 (ip), vehicle: saline with Tween-80

CC1(C)N=C(N)N=C(N)N1c1ccc(OCc2ccc(C(=O)Nc3cccc(S(=O)(=O)F)c3)cc2)c(Cl)c1
T/C (endpoint: mean survival time, dose: 50.0 mg/kg/injection, schedule: Q01DX009 (ip), vehicle: Klucel (hydroxypropylcellulose) (HPC)): 98 % of control, 112 % of control, 173 % of control

COc1ccc2ncc(C)c(CO)c2c1
T/C (endpoint: mean survival time, dose: 100.0 mg/kg/injection, schedule: Q01DX009 (ip), vehicle: Klucel (hydroxypropylcellulose) (HPC)): 102 % of control and 166 % of control

O=C(NCCCNC(=O)Nc1ccc(C2=NCCN2)cc1)Nc1ccc(C2=NCCN2)cc1
T/C (endpoint: mean survival time, dose: 62.0 mg/kg/injection, schedule: Q01DX Z (ip), vehicle: water): 114 % of control and 177 % of control

c1nc(SSc2ncnc3nc[nH]c23)c2[nH]cnc2n1
T/C (endpoint: mean survival time, dose: 45.0 mg/kg/injection, schedule: Q04DX003 (ip), vehicle: saline): 106 % of control and 152 % of control | T/C [1]: 103 % of control, 104 % of control, 164 % of control

CCCCCCCCN(C)N=Nc1ccc(Cl)cc1C(=O)O
T/C (endpoint: mean survival time, dose: 200.0 mg/kg/injection, schedule: Q01DX009 (ip), vehicle: Klucel (hydroxypropylcellulose) (HPC)): 120 % of control and 153 % of control

NC(=O)c1cn(C2OC(CO)C(O)C2O)c2nc(Cl)nc(N)c12 (stereo unspecified)
T/C [1]: 118 % of control and 165 % of control

c1cc2n(n1)CCN2
T/C (endpoint: median survival time, dose: 400.0 mg/kg/injection, schedule: Q04DX003 (oral), vehicle: saline): 97 % of control and 170 % of control | T/C (endpoint: median survival time, dose: 400.0 mg/kg/injection, schedule: Q08DX002 (oral), vehicle: saline): 108 % of control and 155 % of control

COC1CCC(/C(C#N)=C/c2ccco2)CC1 (stereo unspecified)
T/C [2]: 87 % of control and 150 % of control

CCC(=O)OCC1OC(n2cnc3c(=S)nc(N)[nH]c32)C(OC(=O)CC)C1OC(=O)CC (stereo unspecified)
T/C (endpoint: mean survival time, dose: 3.0 mg/kg/injection, schedule: Q01DX Z (ip), vehicle: carboxymethylcellulose (CMC)): 98 % of control, 122 % of control, 151 % of control

CC[n+]1cccc(NC(=O)c2ccc(NC(=O)c3ccc(C(=O)Nc4ccc5c(ccc[n+]5CC)c4)cc3)cc2)c1
T/C (endpoint: mean survival time, dose: 25.0 mg/kg/injection, schedule: Q01DX001 (ip), vehicle: alkali diluted with saline): 111 % of control and 153 % of control

CCCOC(=O)C1(N)CCCC1
T/C (endpoint: mean survival time, dose: 225.0 mg/kg/injection, schedule: Q01DX Z (ip), vehicle: saline): 119 % of control and 159 % of control

NS(=O)(=O)c1ncnc2nc[nH]c12
T/C (endpoint: mean survival time, dose: 50.0 mg/kg/injection, schedule: Q01DX Z (ip), vehicle: carboxymethylcellulose (CMC)): 110 % of control and 153 % of control

CCCCCCCCCCCCC1CCCC(C)C1 (stereo unspecified)
T/C [2]: 97 % of control and 166 % of control

Clc1cc(N2CC2)nc(N2CC2)n1
T/C (endpoint: mean survival time, dose: 9.37 mg/kg/injection, schedule: Q04DX003 (ip), vehicle: saline): 120 % of control and 174 % of control
